# According to ChEMBL document CHEMBL3045109, “Inhibitory effect of bionic fungicide 2-allylphenol on Botrytis cinerea (Pers. ex Fr.) in vitro” (Pest Manag Sci, 2009):
# Tested on: Pyricularia grisea
# Test: Fungicidal activity against Magnaporthe grisea grown on PDA medium assessed as inhibition of mycelial growth incubated for 4 to 7 days at 25 degC in presence of 10 mg/L mitochondrial alternative oxidase inhibitor, SHAM
smiles,measurement,value
C=CCc1ccccc1O [2-ALLYLPHENOL],growth inhibition (GI),Active

# The source made the active and inactive calls. The rule behind the calls is not given here.
